Out of some 310,000 compounds screened, about 14,000 (4.5%) showed an effect of 50% or more. Effects have a minus sign here. Some of the results follow.
molecular target: human ether-à-go-go-related gene (hERG) potassium channel (human, UniProt Q12809); test: primary screen, population patch clamp on CHO cells stably expressing hERG
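Note: peak tail current of the secondary pulse compared with the same well before compound.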

human ether-à-go-go-related gene (hERG) potassium channel, sequence (Q12809 whole entry, looked up): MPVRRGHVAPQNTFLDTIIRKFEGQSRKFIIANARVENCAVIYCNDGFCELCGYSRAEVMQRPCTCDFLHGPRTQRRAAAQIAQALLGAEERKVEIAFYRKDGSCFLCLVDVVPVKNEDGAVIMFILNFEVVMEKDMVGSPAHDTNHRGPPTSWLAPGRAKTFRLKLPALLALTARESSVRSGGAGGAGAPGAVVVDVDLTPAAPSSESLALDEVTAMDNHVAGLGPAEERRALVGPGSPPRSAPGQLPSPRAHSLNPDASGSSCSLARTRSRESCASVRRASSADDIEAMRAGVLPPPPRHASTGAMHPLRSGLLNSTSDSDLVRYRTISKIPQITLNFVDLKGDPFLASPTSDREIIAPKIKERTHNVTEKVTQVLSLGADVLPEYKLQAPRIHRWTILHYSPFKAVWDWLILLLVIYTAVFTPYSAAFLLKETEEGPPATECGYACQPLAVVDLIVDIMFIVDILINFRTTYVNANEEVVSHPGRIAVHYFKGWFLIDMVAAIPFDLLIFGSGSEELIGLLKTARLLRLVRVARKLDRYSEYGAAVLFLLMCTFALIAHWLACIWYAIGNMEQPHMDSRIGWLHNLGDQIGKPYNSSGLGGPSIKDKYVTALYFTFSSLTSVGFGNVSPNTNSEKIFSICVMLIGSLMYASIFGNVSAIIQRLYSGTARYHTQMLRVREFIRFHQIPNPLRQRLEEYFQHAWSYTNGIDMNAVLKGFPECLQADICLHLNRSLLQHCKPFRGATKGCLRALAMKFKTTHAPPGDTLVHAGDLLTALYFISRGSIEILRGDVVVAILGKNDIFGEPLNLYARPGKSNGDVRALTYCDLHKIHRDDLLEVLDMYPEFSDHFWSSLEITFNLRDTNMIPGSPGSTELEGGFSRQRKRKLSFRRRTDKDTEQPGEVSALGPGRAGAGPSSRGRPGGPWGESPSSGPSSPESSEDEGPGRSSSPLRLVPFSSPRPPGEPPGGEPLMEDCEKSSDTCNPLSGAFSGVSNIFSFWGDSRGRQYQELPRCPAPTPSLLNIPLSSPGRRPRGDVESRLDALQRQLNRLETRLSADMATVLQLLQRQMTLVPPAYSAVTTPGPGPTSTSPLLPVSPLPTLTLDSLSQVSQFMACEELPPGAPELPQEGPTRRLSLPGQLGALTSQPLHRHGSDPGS

SMILES	hERG current change (%, negative = inhibition) at 10uM [%]
Cc1onc(-c2ccccc2Cl)c1C(=O)N(Cc1ccccc1)C(C)C	-3.26
CCN(CC)C(=O)C(=O)N/N=C/c1ccc(C(=O)O)cc1	9.78
C/C(=N\NC(=O)c1nnn(-c2nonc2N)c1C(C)C)c1ccncc1	6.73
Cc1cccc(NS(=O)(=O)c2nnc(NC(=O)C3CCCCC3)s2)c1	11.5
O=C(c1ccc(F)cc1)C1CCN(C(=O)Nc2ccc(F)cc2)CC1	-71.7
O=C(OCCCN=C1NS(=O)(=O)c2ccccc21)c1ccccc1F	-12.4
COc1ccccc1C(=O)Nc1nc2cc3c(cc2s1)OCO3	16.2
Cc1nc2c(C(F)(F)F)cccc2c2c1CCS2	7.46
O=[N+]([O-])c1ccc(/C=N/N/C(=N/c2ccccn2)c2ccccn2)cc1	-14.5
CC1=NN(c2nc3ccccc3s2)C(O)(C(F)(F)F)C1 (stereo not shown)	-0.175
NC(=O)c1cnn2c(C(F)(F)F)cc(-c3ccc(F)cc3)nc12	-37.9
Cc1cccc(/C=C(\C(=O)C(=O)O)c2ccc3ccccc3n2)c1	8.23
O=C(Nc1cc(Cl)ccc1Oc1ccccc1)c1ccc(F)cc1	-14.1
CN(Cc1cn(Cc2ccccc2)nc1-c1ccc2c(c1)OCO2)Cc1nccn1C	-32.7
O=C(NC(=O)c1ccccc1)OCC(F)(F)F	6.28
Cc1ccc(SCC(=O)NCCc2ccc(F)cc2)cc1	-0.26
COc1cc(-c2nnc(SCc3c(F)cccc3Cl)o2)cc(OC)c1OC	-7.62
CCn1cc(/C=C(\NC(=O)c2ccccc2F)C(=O)NCCCn2ccnc2)c2ccccc21	-69
Cc1ccc(C(O)P(=O)(OCCC(C)C)c2ccc(N(C)C)cc2)cc1 (stereo not shown)	-8.02
COc1cc(S(=O)(=O)N(C)Cc2ccc3c(c2)OCCO3)ccc1NC(C)=O	0.222
CCCCCOC(=O)C1=C(C)N(C)C(=O)NC1c1cc(Br)c(O)c(OC)c1 (stereo not shown)	-21.7
CCCC(C)NC(=O)CSc1nnc(-c2c[nH]c3ccccc23)o1 (stereo not shown)	-24.4

SMILES	hERG current change (%, negative = inhibition) at 10uM [%]
c1ccc(-n2nnnc2OCCOc2nnnn2-c2ccccc2)cc1	-1.68
COc1ccc(-c2nc3ncnn3cc2C)cc1F	9.1
O=C(COC(=O)COc1ccc2ccccc2c1)NCC(F)(F)F	8.64
O=C(c1cc(COc2cccc(C(F)(F)F)c2)on1)N1CCC(c2ccccc2)CC1	6.79
CCc1cc2c(=O)c(-c3cnn(-c4ccccc4)c3)c(C(F)(F)F)oc2c(CN(C)C)c1O	3.68
COc1ccc(C2(CNC(=O)c3ccc(Br)o3)CCOCC2)cc1	-6.02
COc1ccc(N(Cc2nnc3n2CCCCC3)C(=O)Nc2ccccc2)cc1	22.5
CCC1Oc2ccc(C)cc2N(CC(=O)NCc2ccco2)C1=O (stereo not shown)	15.1
Cc1ccc(OCCNC(=O)c2cc(=O)[nH]c3ccccc23)cc1	28.7
CC(=O)Nc1cccc(OCCCNC(=O)c2cccc3ccccc23)c1	-9.16
CC1CN(S(=O)(=O)c2ccc(C(=O)Nc3nccs3)cc2)CC(C)O1 (stereo not shown)	13.3
CC(=O)c1c(C)[nH]c(C(=O)NCc2cccc(Cl)c2)c1C	-9.17
COc1ccc(C(=O)Nc2ccc(N3CCN(C(=O)c4ccccc4C)CC3)cc2)cc1	5.5
Cc1cc(C)nc(N2CCC(C(=O)O)CC2)n1	0.86
Cc1cc(C)nc(N2CCCC(C(=O)NC(C)C)C2)n1 (stereo not shown)	2.34
COc1cccc(CN2CCN(Cc3cc(OC)c(OC)cc3[N+](=O)[O-])CC2)c1.O=C(O)C(=O)O	-46.3
CCOC(=O)Cc1csc(NS(=O)(=O)c2cc(Cl)ccc2Cl)n1	14.7
COc1ccc([C@@H]2[C@@H]3C(=O)N(C(C)(C)C)C(=O)[C@@H]3[C@]3(Cc4ccccc4)C(=O)N(c4ccc(OC)cc4)C(=O)N23)cc1	18.3
CC(C)(C)c1cc(C(=O)NNc2ccc(OC(F)(F)F)cc2)n(Cc2ccccc2)n1	19.2
Cc1c(C(=O)N2CCOCC2)c(S(=O)(=O)Nc2ccc(OC(F)(F)F)cc2)c(C)n1C	4.79
Cc1cccc(CCNC(=O)C2CCN(S(=O)(=O)N3CCOCC3)CC2)c1	-6.25
CC(=O)Nc1c(-c2ccccc2)nc2cc(C)ccn12	7.74

SMILES	hERG current change (%, negative = inhibition) at 10uM [%]
COc1ccc(CCN(C)C(=O)c2oc3ccccc3c2C)cc1OC	-0.562
O=C(Cn1c(C(F)(F)F)nc2ccccc21)N/N=C/c1ccco1	4.75
Cc1nnc(N2CCCC(C(=O)NCc3ccccc3F)C2)c2nn(-c3ccccc3)c(C)c12 (stereo not shown)	-51.2
N#C/C(=C(\O)C(F)(F)F)c1nnc2n1CCCCC2	15.8
Cc1ccc(Cn2c(C)c3cnn(CC(=O)NC4CCCC4)c(=O)c3c2C)cc1	7.2
O=C(O)CCCCCNC(=O)c1ccccc1	8.89
CCOc1ccccc1C(=O)OCC(=O)Nc1ncc(C(F)(F)F)cc1Cl	-10.9
Cc1ccc2nc(-c3ccccn3)c(NC3CCCC3)n2c1	-16.7
N#CC(c1ccc(O)cc1)c1ncc(C(F)(F)F)cc1Cl (stereo not shown)	-0.101
O=C(NC1CCN(C(=S)Nc2ccc(F)cc2)CC1)C1CCCCC1	3.49
COc1cc(OC)cc(C(=O)Nc2nc3ccccc3[nH]2)c1	8.2
CCc1nn(CC(=O)N2CC(C)CC(C)C2)c(=O)c2cccn12 (stereo not shown)	16.7
O=C(COc1ccccc1)NN1C(=O)CSC1=S	15.7
COC(=O)/C=C(\C)NC(=O)c1ccc(F)cc1	4.94
Cc1ccccc1-n1c(SCc2cc(=O)n3ccccc3n2)nc2[nH]ncc2c1=O	-35.2
O=C(CN1C(=O)C2CCCCC2C1=O)Nc1nc2ccc(F)cc2s1 (stereo not shown)	-31
CCNC(=O)N1CCCC(C(=O)c2ccc(-c3ccccc3)cc2)C1 (stereo not shown)	8.85
CC1CCCN(C(=O)C23CCC(C)(C(=O)C2)C3(C)C)C1 (stereo not shown)	-11.5
Cc1cc(C)n(CCN(C)c2nc3nonc3nc2N2CCCCC2)n1	9.24
Cc1nc([N+](=O)[O-])cn1CC(O)c1ccc(F)cc1 (stereo not shown)	6.48
C=CCNC(=O)C(C#N)c1nc2ccccc2nc1N1CCCCCC1 (stereo not shown)	-9.34
CCOC(=O)C1CCCN(c2c(NCCC(C)C)c(=O)c2=O)C1 (stereo not shown)	-10.9

SMILES	hERG current change (%, negative = inhibition) at 10uM [%]
CCOC(=O)N1CCc2[nH]c3ccc(C)cc3c2C1	10.5
COC(=O)c1cn(C(=O)c2cccs2)c2ccccc12	-7.34
C=CCn1c(SCC(=O)N2CCN(c3ccccc3)CC2)nc2c([nH]c3ccccc32)c1=O	13.3
O=C(Oc1ccc(-c2cnc3ccccc3n2)cc1)c1ccc(Cl)c([N+](=O)[O-])c1	13.3
COc1ccc(N(C(=O)c2snc(C(N)=O)c2N)C(C(=O)NC2CCCC2)c2ccc3ncccc3c2)cc1 (stereo not shown)	-2.14
O=C(c1nc[nH]c1C(=O)N1CCN(c2ccccc2)CC1)N1CCN(c2ccccc2)CC1	-4.08
COc1ccc(N2C(=O)CCC(C(=O)Nc3cccc(C)n3)C2c2ccc(OC)c(OC)c2)cc1 (stereo not shown)	-3.84
COc1ccc(-c2c3c(=O)n(C)c(=O)n(C)c3cn2-c2cc(OC)ccc2OC)cc1	-35.2
NC(=O)c1ccsc1NC(=O)CCS(=O)(=O)c1ccc(F)cc1	-2.69
COC(=O)c1sc(NC(=S)NC(=O)c2ccccc2F)nc1C	7.71
Clc1cc(Br)ccc1NCc1cccnc1	-21.1
Cc1cc(C)cc(-n2cc[nH]c2=S)c1	14.5
CCN(c1ccccc1)S(=O)(=O)c1ccc(NC(=S)NC(=O)c2ccc(Br)o2)cc1	3.66
N#CNC(=Nc1cccc(F)c1)SCc1ccccc1	5.49
CC1CN(C(NC(=O)C(C)(C)C)C(Cl)(Cl)Cl)CC(C)O1 (stereo not shown)	-18.5
S=c1cnc2ccccc2[nH]1	7.5
COc1ccc(CN(C)C(=O)c2sccc2-c2ccccc2)c(OC)c1	0.177
COc1ccc(S(=O)(=O)NCCC(=O)NC(C)c2ccccc2)cc1 (stereo not shown)	-12.4
CCN1C(=O)c2cccc3c(S(=O)(=O)NCCc4c[nH]c5ccccc45)ccc1c23	-22.1
O=C(CCCN1C(=O)C2CC=CCC2C1=O)Nc1ccccc1F (stereo not shown)	1.61
FC(F)Oc1ccc(NC(=S)NC23CC4CC(CC(C4)C2)C3)cc1	4.12
CC1CCCCC1NC(=O)CN(C)S(=O)(=O)c1ccc2c(c1)CCC(=O)N2 (stereo not shown)	-11.4

Reference: publication PMC4336329 (PLoS ONE, 2015)
